Source: US20120302598A1, “IMIDAZOPYRIDINONES” (PFIZER LIMITED, priority 2007, published 2012)

Target: T1, TLR7 (Homo sapiens, UniProt Q9NYK1)
T1 construct: PBL contain as a subpopulation plasmacytoid dendritic cells which are the natural interferon producing cells; endogenous in cells; host or cells: peripheral blood lymphocytes (PBL), containing plasmacytoid dendritic cells
T1 sequence (Q9NYK1 27-1049): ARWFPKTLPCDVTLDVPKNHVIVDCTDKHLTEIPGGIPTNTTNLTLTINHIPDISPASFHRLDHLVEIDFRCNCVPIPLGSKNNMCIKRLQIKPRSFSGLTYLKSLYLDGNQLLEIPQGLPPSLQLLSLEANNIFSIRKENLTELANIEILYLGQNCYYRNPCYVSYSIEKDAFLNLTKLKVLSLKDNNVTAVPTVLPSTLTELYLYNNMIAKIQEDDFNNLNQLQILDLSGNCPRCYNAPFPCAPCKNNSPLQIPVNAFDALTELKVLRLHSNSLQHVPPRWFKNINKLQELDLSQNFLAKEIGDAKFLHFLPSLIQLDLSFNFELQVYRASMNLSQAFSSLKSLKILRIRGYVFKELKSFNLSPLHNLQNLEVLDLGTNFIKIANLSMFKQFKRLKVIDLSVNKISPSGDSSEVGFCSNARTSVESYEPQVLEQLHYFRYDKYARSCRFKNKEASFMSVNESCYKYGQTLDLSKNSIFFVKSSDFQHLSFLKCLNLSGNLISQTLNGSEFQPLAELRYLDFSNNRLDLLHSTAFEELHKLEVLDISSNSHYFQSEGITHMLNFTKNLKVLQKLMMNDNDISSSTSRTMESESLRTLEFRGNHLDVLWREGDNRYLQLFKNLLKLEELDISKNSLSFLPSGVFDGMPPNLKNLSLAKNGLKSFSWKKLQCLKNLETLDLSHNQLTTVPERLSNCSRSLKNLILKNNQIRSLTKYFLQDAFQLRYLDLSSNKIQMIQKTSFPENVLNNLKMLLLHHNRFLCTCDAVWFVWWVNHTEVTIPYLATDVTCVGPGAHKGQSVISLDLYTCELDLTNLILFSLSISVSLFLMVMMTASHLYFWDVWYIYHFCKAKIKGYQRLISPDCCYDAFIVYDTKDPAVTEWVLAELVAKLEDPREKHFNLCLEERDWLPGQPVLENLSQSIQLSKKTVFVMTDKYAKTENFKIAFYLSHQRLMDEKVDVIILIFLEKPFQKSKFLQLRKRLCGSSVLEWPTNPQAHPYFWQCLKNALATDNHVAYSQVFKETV
Experiment: PBL/HCV replicon bioassay
Type: cell-based
Conditions: read-out: EC50 (nM) (n = no. of experiments)
Excerpt: EMCV: Encephalomyocarditis virus IRES: Internal ribosmomal entry site Huh: Huh-7 human hepatoma cell line 7 (parental cells used to generate HCV replicon cell lines) IUC: luciferase ubi: ubiquitin neo: neomycin ET: glutamic acid, threonine (cell culture adaptive mutations in the replicon used in the assay) RPMI-FCS: Roswell Park Memorial Institute (cell culture medium for PBL)—Foetal Calf Serum PBL: peripheral blood lymphocytes
PBL contain as a subpopulation plasmacytoid dendritic cells which are the natural interferon producing cells during an infection and as such are an excellent model in which to profile interferon inducers. As an extremely sensitive antiviral bioassay, supernatant taken from PBL is assayed for antiviral activity in the HCV replicon system.
The HCV replicon (Huh-5-2[l389 luc-ubi-neo-NS3-3′/ET]) is an in vitro model of HCV replication in which the luciferase reporter is incorporated into HCV sequences and stably maintained in the human hepatoma cell line Huh-7. The firefly luciferase reporter is expressed as a luciferase-ubiquitin-neomycin phosphotransferase fusion protein which is cleaved by host proteases to release luciferase. […] Firefly luciferase activity is detected using a Bright-Glo™ Luciferase Assay System manufactured by Promega. […]

Q: How did the EC50 turn out when `Cc1ccc(Cn2c(=O)[nH]c3c(N)nc(OC[C@@H]4CCCO4)cc32)cn1` [Example 7, 4-Amino-1-(6-methyl-pyridin-3-ylmethyl)-6-(tetrahydro-furan-2-S-ylmethoxy)-1,3-dihydro-imidazo[4,5-c]pyridin-2-one] was run?
A: Its EC50 is 54 nM, 60 nM, 91 nM, 40 nM, 1.24 µM, 913 nM, 3.42 µM [lines of one column].

For part of its entries the source gives two or more results. Only these are listed. There may be further records. Results that share an entry seem to repeat one measurement; one of them may be the mean.
